In PubChem BioAssay AID485364 (National Center for Advancing Translational Sciences (NCATS), 2010):
About 11,000 (3.1%) of roughly 360,000 compounds were called active. Inconclusive results, whose numbers are uncertain, are shown with a selection of clear calls. The call rests on the fitted dose curve; in most records, active means well fitted inhibition curve with a large enough effect; inconclusive means small, poorly fitted or top-dose-only effect; inactive means no such curve, though single readings can be large or run the other way. Potencies of inconclusive entries are left out as doubtful fits.

The molecules below were run against Schistosoma mansoni thioredoxin glutathione reductase (TGR) (UniProt Q962Y6) (assay: qHTS Assay for the Inhibitors of Schistosoma Mansoni Peroxiredoxins). Conditions: purified TGR, DTNB reduction, TNB absorbance 405 nm; activity change, negative = inhibition: at 114 µM (top of the series) unless noted.
Method in brief: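 TGR 20 nM + NADPH 100 uM (dispensed conc.), cpd preinc 15 min RT; start with NADPH (500 uM addition) then DTNB (15 mM addition). Kinetic TNB absorbance, 405 nm filter. Four-parameter Hill fit across titration.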
Further: nearly all actives have a fitted effect of over 60% in size.
On the % scale 0 is the no-effect control and ±100 the full control effect; potency means the concentration at half of the fitted maximal effect; tags describe the fitted curve by direction and shape.

Compound | Potency | activity change, negative = inhibition
CCCN(CC(=O)Nc1ccccc1C)CC(=O)Nc1ccc(Br)cc1F | inconclusive [inhibitor, partial curve] | –
CC(C)c1ccc(S(=O)(=O)/N=C2\C=C(NS(=O)(=O)c3ccccc3)C(=O)c3ccccc32)cc1 | inconclusive [inhibitor, partial curve] | –
O=c1nc2s/c(=C\c3ccco3)c(=O)n2nc1Cc1ccc(F)cc1 | inconclusive [inhibitor, partial curve] | –
COC(=O)C1=C(C)N(C)C(=O)/C1=C\c1cccs1 | inconclusive [inhibitor, partial curve] | –
O=C(COC(=O)CNC(=O)c1ccc(-c2ccccc2)cc1)NCc1ccco1 | inconclusive [inhibitor, partial curve] | –
COC1=C/C(=C/c2c(N)n3nc(CC(=O)N4CCOCC4)sc3nc2=O)C=CC1=O | inconclusive [inhibitor, partial curve, poor fit] | –
CC(=O)N1CCN(CCS(=O)(=O)c2ccc(Br)cc2)CC1 | inconclusive [inhibitor, partial curve] | –
COc1ccc(C(=O)N/N=C(\C)CC(=O)Nc2ccc3c(c2)OCO3)cc1 | inconclusive [inhibitor, partial curve] | –
CCOCCCNC(=O)CSc1nnc(-c2ccc(S(=O)(=O)N3CCCC3)cc2)n1C | – | inactive: 1.7%
Cc1sc2ncn(CC(=O)N3CCN(c4ccccc4F)CC3)c(=O)c2c1S(=O)(=O)N1CCC(C)CC1 | – | inactive: 3.49%
CCc1ccc2oc(-c3ccc(C)c(NC(=O)/C=C/c4ccco4)c3)nc2c1 | inconclusive [inhibitor, partial curve] | –
CC(C)c1ccc(/C=N/NC(=O)CCNC(=O)c2ccccc2)cc1 | – | inactive: -1.89%
O=C(CSc1nc(=O)n(Cc2ccco2)c2c1CCC2)NCc1ccccc1 | – | inactive: -8.56%
CC1(c2ccc(Cl)cc2)NC(=O)N(CC(=O)Nc2cccnc2Cl)C1=O (centres undefined) | – | inactive: -0.19%
CN1C(=S)N(c2ccccc2)C(=O)/C1=C/c1ccco1 | inconclusive [inhibitor, partial curve] | –
CCCN1CCC(=O)N([C@H](CSc2ccc(Br)cc2)c2ccccc2)CC1 | inconclusive [inhibitor, partial curve] | –
COc1ccccc1N/N=C/c1ccc2c(c1)OCO2 | inconclusive [inhibitor, partial curve] | –
O=C(Cc1nnc(NC(=O)c2ccccc2)s1)N/N=C\c1ccc(O)c(O)c1 | inconclusive [inhibitor, partial curve, poor fit] | –
Oc1ccc(N=C/C=C/c2ccc(Br)cc2)cc1-c1nc2ccccc2s1 | inconclusive [inhibitor, partial curve] | –
Cc1nc(SCc2ccccc2)[nH]c(=O)c1CC(=O)OCC(C)C | – | inactive: 11.6%
O=C(/C=C/c1cccc(F)c1)N(c1ccccn1)C1CCCCC1 | inconclusive [inhibitor, single point] | –
CCNC(=S)N(CCO)Cc1cc2cc3c(cc2[nH]c1=O)OCO3 | inconclusive [inhibitor, full curve] | –
CCS(=O)(=O)c1ncc(Cl)c(C(=O)N2CCN(c3ccc(OC)cc3)CC2)n1 | active: 35.5 µM | –

Compound | Potency | activity change, negative = inhibition
COc1ccccc1S(=O)(=O)Nc1ccc2cn[nH]c2c1 | inconclusive [inhibitor, single point] | –
O=C(N/N=C/c1coc2ccccc2c1=O)c1cc2ccccc2o1 | inconclusive [inhibitor, partial curve, poor fit] | –
Cc1cc(Br)cc(Cl)c1OC(=O)c1cnccn1 | inconclusive [inhibitor, partial curve] | –
CCOC(=O)N1CCN(C(=O)CS(=O)Cc2nc(-c3cccc(C)c3)oc2C)CC1 (centres undefined) | inconclusive [inhibitor, full curve, poor fit] | –
COc1ccc(CCNC(=O)c2ccc3c(c2)CCN3S(C)(=O)=O)cc1OC | – | inactive: -3.57%
Cc1ccc(C)c(S(=O)(=O)c2c(N)n(/N=C/c3ccco3)c3nc4ccccc4nc23)c1 | inconclusive [inhibitor, partial curve] | –
C/C(=N\Nc1ccc(S(=O)(=O)N2CCOCC2)cc1[N+](=O)[O-])C(C)C | active: 39.8 µM | –
Cc1cc(=O)c2cc(Br)ccc2[nH]1 | inconclusive [inhibitor, single point] | –
Fc1ccc(/C=C2\CCCC3=C2Nc2ncnn2C3c2ccc(F)cc2)cc1 (centres undefined) | inconclusive [inhibitor, full curve] | –
O=c1[nH]cnc(O)c1C(c1ccc2c(c1)OCO2)c1c(O)nc[nH]c1=O | inconclusive [inhibitor, partial curve] | –
COCCCN(CC(=O)NCc1ccccc1)S(=O)(=O)c1ccc(C)cc1 | inconclusive [inhibitor, partial curve] | –
O=C1CCCC2=C1C(c1ccco1)Nc1ccc3ccccc3c12 (centres undefined) | inconclusive [inhibitor, full curve] | –
CCOc1ccc(NC(=O)CSC2=Nc3ccccc3C3=NC(CC(=O)NCc4cccs4)C(=O)N23)cc1 (centres undefined) | – | inactive: 1.21%
CC(C)N(CC#CCC1(O)c2ccccc2-c2ccccc21)CCO | inconclusive [inhibitor, partial curve] | –
COc1ccc(N/C=C(\[N+](=O)[O-])S(=O)(=O)c2ccccc2)cc1 | inconclusive [inhibitor, partial curve] | –
CSC[C@H](NC(=O)COc1cc2c(c3oc(=O)c(C)c(C)c13)CCC(C)(C)O2)C(=O)O | – | inactive: -22.7%
COC(=O)CSc1[nH]c2ccc(Br)cc2c1[N+](=O)[O-] | active: 2.51 µM | –
CC(C)c1nc(NCCO)c2nnn(Cc3ccccc3)c2n1 | – | inactive: 0%
COc1ccc(CCN2C(=O)CSC2=Nc2ccc(C(C)C)cc2)cc1OC | – | inactive: 6.65%
COc1ccc(CNC(=S)N/N=C/c2ccc(OC)c(OC)c2)cc1 | – | inactive: 2.51%
COC(=O)c1ccc(NN=Nc2ccc(C)cc2)cc1 | inconclusive [inhibitor, partial curve] | –
O=[N+]([O-])c1ccc([N+](=O)[O-])c(Nc2ccc(N3CCOCC3)cc2)c1 | inconclusive [inhibitor, partial curve] | –
COc1ccccc1C1C=C(c2ccc(Cl)cc2)Nc2nc(N3C(=O)CCC3=O)nn21 (centres undefined) | – | inactive: 0%

Compound | Potency | activity change, negative = inhibition
Cc1cccc2c1=NC(=O)/C(=C/c1c(O)[nH]c(=O)[nH]c1=O)C=2 | active: 35.5 µM | –
O=C(CSc1nnc2c(n1)[nH]c1ccccc12)NCc1ccco1 | inconclusive [inhibitor, partial curve] | –
Clc1ccc(C2=CC(c3ccco3)n3ncnc3N2)cc1 (centres undefined) | active: 50.1 µM | –
Cc1ccc(CS(=O)(=O)c2ccc(C(=O)N3CCN(c4ccccn4)CC3)cc2[N+](=O)[O-])cc1 | active: 31.6 µM | –
COc1ccc(C)cc1NC(=O)CSc1nnc(-c2ccc(Br)cc2)o1 | inconclusive [inhibitor, single point] | –
CC1(C)CC(NC(=O)c2ccccc2)CC(C)(C)N1 | – | inactive: 8.75%
N#CC1=C(N)Oc2c(oc(CO)cc2=O)C1c1ccsc1 (centres undefined) | inconclusive [inhibitor, single point] | –
COc1ccc(CNC(=O)c2sc3nc4n(c(=O)c3c2C)CCCC4)cc1 | inconclusive [inhibitor, partial curve] | –
Cn1cccc1/C=N/N1CCN(Cc2ccc(Cl)cc2)CC1 | inconclusive [inhibitor, partial curve] | –
N#CC(C#N)=C1C=CC=CN1/C(=C\c1ccccc1)C(=O)c1cccs1 | active: 0.282 µM | –
CCOc1cc(C2C3=C(CCCC3=O)N(C)C3=C2C(=O)CCC3)cc(Cl)c1O | active: 35.5 µM | –
S=C(c1ccc(-c2cccc(Cl)c2)o1)N1CCCCC1 | inconclusive [inhibitor, partial curve, poor fit] | –
COc1ccc(N=Cc2c(O)ccc3ccccc23)cc1 | inconclusive [inhibitor, full curve] | –
CCCCOc1ccc(CN2CCN(CC)CC2)cc1 | – | inactive: 1.97%
CCOc1cc(N2CCCC2)ccc1[N+](=O)[O-] | – | inactive: 3.6%
CCOc1ccc(-n2c(=S)sc3c(=O)[nH]c(SCC(=O)NCc4ccco4)nc32)cc1 | inconclusive [inhibitor, partial curve] | –
Cn1c2ccccc2c2ncn(Cc3ccco3)c(=O)c21 | inconclusive [inhibitor, full curve, poor fit] | –
COc1ccc(Cl)cc1NC(=O)c1c(NCc2ccc(C)o2)sc2c1CCC(C)C2 (centres undefined) | inconclusive [inhibitor, partial curve] | –
C=CCn1c(SCC(=O)Nc2sccc2C(N)=O)nc2ccc(Cl)cc2c1=O | inconclusive [inhibitor, single point] | –
CN1CCN(C(=O)C2=C[C@@H](c3csc4ccccc34)C[C@@H](OCCCCO)O2)CC1 | active: 44.7 µM | –
COc1cc2c(cc1OC)C1=NC(=O)CN1C(SCc1ccccc1)=N2 | – | inactive: 20.4%
COc1ccc(OC)c(CN2CCN(C(=O)c3cc(S(=O)(=O)Nc4ccccc4OC)ccc3C)CC2)c1 | inconclusive [inhibitor, single point] | –
Cc1ccccc1CNC(=O)c1ccccc1SCC(=O)NCc1ccco1 | inconclusive [inhibitor, partial curve] | –
